Experimental data as given in PubChem BioAssay AID686978 (National Center for Advancing Translational Sciences (NCATS), 2013).
Several values for one entry are separate records, joined by “and”; a condition that tells them apart may be missing. Equal values may be shown once. The whole screen tested about 420,000 compounds, of which about 64,000 (15%) were called active. The shares of active, inactive and inconclusive entries below differ from those in the screen. Calls follow the shape of the dose curve; as a rule, active = well fitted inhibition curve with a large enough effect; inconclusive = small, poorly fitted or top-dose-only effect; inactive = flat fitted curve, though single readings scatter. Where the call is inconclusive, the potency comes from a doubtful curve fit.

assay: qHTS for Inhibitors of human tyrosyl-DNA phosphodiesterase 1 (TDP1): qHTS in cells in absence of CPT; conditions: DT40 Tdp1-/- hTDP1 cells, no CPT, ATP luminescence, 48 h; activity change, negative = growth inhibition: at 46.2 µM (top of the series) unless noted; also: nearly all actives have a fitted effect of over 55% in size
Summary of the method: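 Growth of hTDP1-complemented DT40 Tdp1-knockout cells is measured by ATP luminescence after at least 48 hr compound exposure at 37 °C, with DMSO substituting for the 20 nM CPT used in the parallel screen.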
% is scaled to controls: 0 for no effect and ±100 for the full control effect; potency is read from the fitted curve at half-maximal effect; tags tell the direction and shape of the fitted curve.

Question: With `C[C@@H]1CCC2[C@](C)(CO)C(O)CC[C@@]2(C)[C@@]12CC[C@](CO)(CCO)O2` (some centres not stated) as the molecule, how does the Potency read?
Answer: inactive

Question: For `CCc1c(C(=O)NN2C(=O)C3CCCCC3C2=O)csc1C` (configuration not stated), which Potency is on record?
Answer: inactive

Question: Which Potency does the source give for `NC(CCc1ccccc1)c1csc(Nc2ccc(C(=O)NCCO)cc2)n1` (configuration not stated) here?
Answer: active: 23.1 µM

Question: Which Potency does the source give for `CCOc1ncccc1C(=O)OCc1c(F)cccc1Cl` here?
Answer: inactive

Question: For `CCOc1ccc2nc(NC(=O)c3cc([N+](=O)[O-])ccc3N3CCOCC3)sc2c1`, which Potency is on record?
Answer: active: 18.4 µM

Question: For `O=C(c1cccc(S(=O)(=O)N2CCCC2)c1)c1cccc(S(=O)(=O)N2CCCC2)c1`, which Potency is on record?
Answer: inactive

Question: For `O=C(Oc1ccc(N(Cc2cccs2)C2=NS(=O)(=O)c3ccccc32)cc1)c1ccccc1`, which Potency is on record?
Answer: active: 23.1 µM

Question: For `O=C(O)C1=CC2C=C(Cl)C=CC2OC1=O` (configuration not stated), which Potency is on record?
Answer: inconclusive: 13 µM [inhibitor, single point]

Question: Which Potency does the source give for `Cc1cccc(N2CCN(C(=O)c3cc4ccc5cccnc5c4[nH]3)CC2)c1C` here?
Answer: inconclusive: 25.9 µM [inhibitor, single point]

Question: For `C=CCOC(=O)C1=C(C)NC(SC)=C(C#N)C1c1ccc(OCC)cc1` (configuration not stated), which Potency is on record?
Answer: inconclusive: 23.1 µM [inhibitor, partial curve] and inconclusive: 29.1 µM [inhibitor, single point]

Question: Which Potency does the source give for `COc1cccc(-c2ccc(CN3C(C(C)C)C(=O)N(Cc4cn(CCC5OCCO5)nn4)CCS3(=O)=O)cc2)c1OC` (configuration not stated) here?
Answer: inconclusive: 20.6 µM [inhibitor, single point]

Question: For `Cn1nnc(NC(=O)CSc2ccc(Cl)cc2)n1`, which Potency is on record?
Answer: inactive

Question: Which Potency does the source give for `C(=C\c1ccc2ccccc2n1)/c1cccnc1` here?
Answer: active: 15.8 µM

Question: Which Potency does the source give for `COC(=O)[C@@]1(C(C)C)N=C(c2cc(OC)c(OC)c(OC)c2)[C@]2(O1)C(=O)Nc1ccccc12` here?
Answer: inconclusive: 11.6 µM [inhibitor, partial curve]

Question: Which Potency does the source give for `Cc1c(C(=O)Nc2cccc(C(F)(F)F)c2)sc2nc3n(c(=O)c12)CCC3` here?
Answer: active: 23.1 µM

Question: Which Potency does the source give for `CC(C)NC(=O)N1CCCC2(CCN(C(=O)c3cc(C(F)(F)F)cc(C(F)(F)F)c3)CC2)C1` here?
Answer: inconclusive: 29.1 µM [inhibitor, single point]

Question: With `Cc1ccc(S(=O)(=O)N2CCCCC2CCNC(=O)C(=O)NCC2CCCO2)cc1` (configuration not stated) as the molecule, how does the Potency read?
Answer: inactive

Question: With `CCCN(CCC)CCNC(=O)c1cc2c(=O)oc3ccc(C)cc3c2s1` as the molecule, how does the Potency read?
Answer: inconclusive: 29.1 µM [inhibitor, single point]

Question: Which Potency does the source give for `C=CCNS(=O)(=O)c1ccc2nsnc2c1` here?
Answer: inactive

Question: With `COc1ccc(NC(=O)c2cc(C3CC3)nc3c2c(C)nn3-c2ccccc2)c(OC)c1` as the molecule, how does the Potency read?
Answer: inconclusive: 18.4 µM [inhibitor, single point]

Question: For `COC(=O)c1c(C)oc(C)c1S(=O)(=O)NCC1CC1`, which Potency is on record?
Answer: inactive

Question: With `CCN(C(=O)COC(=O)/C(C#N)=C/c1ccc(OC)cc1)C1CCS(=O)(=O)C1` (configuration not stated) as the molecule, how does the Potency read?
Answer: inactive

Question: With `CC(=O)Nc1cccc(NC(=O)CS(=O)(=O)c2cn(CC(=O)N3CCCC3)c3ccccc23)c1` as the molecule, how does the Potency read?
Answer: inactive

Question: With `CCn1nc(C(=O)NNC(=O)c2ccccc2)c2ccccc2c1=O` as the molecule, how does the Potency read?
Answer: inactive

Question: With `C[C@@H]1CN([C@@H](C)CO)C(=O)c2cc(Br)cnc2O[C@H]1CN(C)Cc1ccc(-c2ccccc2)cc1` as the molecule, how does the Potency read?
Answer: inconclusive: 29.1 µM [inhibitor, single point]

Question: With `Cc1cccc(CN(C(=S)Nc2c(C)cccc2C)c2cccnc2)c1` as the molecule, how does the Potency read?
Answer: inconclusive: 29.1 µM [inhibitor, single point]

Question: Which Potency does the source give for `CSc1ccccc1C(=O)N1CCCCC1` here?
Answer: inactive

Question: With `O=C(O)C1OC(Oc2cc3oc(-c4ccccc4)cc(=O)c3c(O)c2O)C(O)C(O)C1O` (configuration not stated) as the molecule, how does the Potency read?
Answer: inconclusive: 16.4 µM [inhibitor, partial curve]

Question: Which Potency does the source give for `Cc1ccc(-n2ncc(C(=O)N3CCN(C(=O)c4ccco4)CC3)c2-n2cccc2)cc1` here?
Answer: inconclusive: 29.1 µM [inhibitor, single point]

Question: Which Potency does the source give for `CCOCCCNC(=O)Cn1ncc2c([nH]c3ccccc32)c1=O` here?
Answer: inactive

Question: For `CC(C)C[C@H](NC(=O)N1CCn2c1nc1ccccc12)C(=O)NCC1CCCO1` (some centres not stated), which Potency is on record?
Answer: inactive

Question: For `COC(=O)c1cccc(NC(=S)N2CCN(c3ccccc3F)CC2)c1`, which Potency is on record?
Answer: inconclusive: 29.1 µM [inhibitor, single point]

Question: With `Cn1nc(C(F)(F)F)cc1C(=O)Nc1ccc(Cl)cc1` as the molecule, how does the Potency read?
Answer: inconclusive: 18.4 µM [inhibitor, partial curve]

Question: Which Potency does the source give for `O=C(c1ccnc(Cl)c1)N1CCCC(N2CCN(c3ccccc3F)CC2)C1` (configuration not stated) here?
Answer: inconclusive: 14.6 µM [inhibitor, partial curve]

Question: With `CC(C)c1ccccc1NC(=O)CSc1n[nH]c(=O)n1C1CC1` as the molecule, how does the Potency read?
Answer: inactive

Question: With `CCCCCCCCCCCCCCCC[n+]1ccc(C)c2ccccc21` as the molecule, how does the Potency read?
Answer: active: 0.794 µM

Question: With `CC(=O)Nc1ccc(C(=O)N/N=C(\C)CC(=O)Nc2ccc(OCc3ccccc3)cc2)cc1` as the molecule, how does the Potency read?
Answer: inconclusive: 29.1 µM [inhibitor, single point]

Question: For `Cn1c(SCc2cccc([N+](=O)[O-])c2)nc2c(c1=O)SCC2`, which Potency is on record?
Answer: inconclusive: 23.1 µM [inhibitor, single point]

Question: With `Clc1ccccc1CNCCCSc1nnnn1-c1ccccc1` as the molecule, how does the Potency read?
Answer: inconclusive: 29.1 µM [inhibitor, single point]

Question: For `Cc1ccccc1-n1c(-c2csc3ccccc23)n[nH]c1=S`, which activity change, negative = growth inhibition is on record?
Answer: inconclusive: -34.3% [inhibitor]

Question: Which Potency does the source give for `COc1cc2nc(=S)n3[nH]c(COc4ccccc4C)nc3c2cc1OC` here?
Answer: active: 5.8 µM

Question: Which Potency does the source give for `CCOC(=O)N1CCN(Cc2nc3cc(NC(=O)CC(C)C)ccc3n2C(C)C)CC1` here?
Answer: active: 0.731 µM

Question: For `COc1cc(CNc2ccc(S(N)(=O)=O)cc2)ccc1OCc1ccccc1F`, which Potency is on record?
Answer: inconclusive: 20.6 µM [inhibitor, single point]

Question: For `Cc1cc(C)c2c(NC(=S)Nc3ccccc3)n[nH]c2n1`, which Potency is on record?
Answer: inconclusive: 18.4 µM [inhibitor, single point]

Question: With `CN1CCN(C(=O)c2cccc(-c3ccc4nccn4c3)c2)CC1` as the molecule, how does the activity change, negative = growth inhibition read?
Answer: inconclusive: -30.7% [inhibitor]

Question: For `Cc1ccc2nc(-c3cccc(Br)c3)c(Cc3ccccn3)n2c1`, which Potency is on record?
Answer: inconclusive: 23.1 µM [inhibitor, single point]

Question: With `O=c1c2ccccc2nc(SCc2ccccc2)n1CC1CCCO1` (configuration not stated) as the molecule, how does the Potency read?
Answer: inconclusive: 23.1 µM [inhibitor, single point]
